Results: PMC4336329 (PLoS ONE, 2015)
The whole screen tested about 310,000 compounds, of which about 14,000 (4.5%) showed an effect of 50% or more. The effect is printed as a negative number. The list shows a part of the results.

Biological target: human ether-à-go-go-related gene (hERG) potassium channel (human, UniProt Q12809)
Experiment: primary screen, population patch clamp on CHO cells stably expressing hERG
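Note: peak tail current of the secondary pulse compared with the same well before compound.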

Chain of human ether-à-go-go-related gene (hERG) potassium channel (Q12809 whole entry, looked up): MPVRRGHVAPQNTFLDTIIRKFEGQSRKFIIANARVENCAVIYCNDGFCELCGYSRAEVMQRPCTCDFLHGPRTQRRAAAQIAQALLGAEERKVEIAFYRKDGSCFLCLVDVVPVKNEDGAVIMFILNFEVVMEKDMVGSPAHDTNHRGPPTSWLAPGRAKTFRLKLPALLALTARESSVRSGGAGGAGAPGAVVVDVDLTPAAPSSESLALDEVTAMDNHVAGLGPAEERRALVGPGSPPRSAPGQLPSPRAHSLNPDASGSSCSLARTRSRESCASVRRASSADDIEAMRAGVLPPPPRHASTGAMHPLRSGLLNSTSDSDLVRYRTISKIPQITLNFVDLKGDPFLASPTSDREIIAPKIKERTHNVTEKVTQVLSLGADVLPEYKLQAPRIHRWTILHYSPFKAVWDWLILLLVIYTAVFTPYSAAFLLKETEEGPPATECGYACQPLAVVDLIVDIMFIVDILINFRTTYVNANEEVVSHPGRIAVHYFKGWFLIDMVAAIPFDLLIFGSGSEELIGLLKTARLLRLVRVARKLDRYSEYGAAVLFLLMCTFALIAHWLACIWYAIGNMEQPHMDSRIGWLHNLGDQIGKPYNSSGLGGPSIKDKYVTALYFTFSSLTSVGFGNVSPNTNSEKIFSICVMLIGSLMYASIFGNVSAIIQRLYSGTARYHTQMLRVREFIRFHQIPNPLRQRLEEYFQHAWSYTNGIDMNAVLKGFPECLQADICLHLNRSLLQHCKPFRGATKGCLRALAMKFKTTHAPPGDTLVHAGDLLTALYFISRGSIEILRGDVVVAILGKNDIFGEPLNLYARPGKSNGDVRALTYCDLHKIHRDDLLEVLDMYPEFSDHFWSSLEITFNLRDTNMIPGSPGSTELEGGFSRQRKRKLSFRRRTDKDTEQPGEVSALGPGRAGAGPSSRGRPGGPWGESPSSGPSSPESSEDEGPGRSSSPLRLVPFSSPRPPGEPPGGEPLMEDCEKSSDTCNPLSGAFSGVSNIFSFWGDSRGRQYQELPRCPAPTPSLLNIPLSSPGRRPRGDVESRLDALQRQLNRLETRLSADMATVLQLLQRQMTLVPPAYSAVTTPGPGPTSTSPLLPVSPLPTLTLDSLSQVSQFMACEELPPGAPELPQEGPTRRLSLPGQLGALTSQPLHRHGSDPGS

SMILES	hERG current change (%, negative = inhibition) at 10uM [%]
Cc1cc(C)c(OCC(=O)NCC2COc3ccccc3O2)c(C)c1 (stereo not shown)	-13.9
CC(C)CC(C(=O)Nn1cnnc1)N1C(=O)c2ccccc2C1=O (stereo not shown)	3.91
NC(=O)c1ccccc1NC(=O)CN1CCN(Cc2ccccc2)CC1	-78.3
CNC(=O)c1cnc(-c2ccccc2)nc1-c1ccccc1	9.63
O=S(=O)(c1ccccc1)[C@@]1(c2ccc(Br)cc2)C[C@@H]2ON=C(c3cccc(Br)c3)[C@@H]2C1	-12
O=C(NC1CC1)C1CC(=O)N(c2cccc(Cl)c2Cl)C1 (stereo not shown)	16.8
CCCc1nc(SCC(=O)NC2CC2)c2c(C)c(C)sc2n1	-26.2
CCOC(=O)C(=CNc1ccc2c(c1)nnn2-c1ccc(Cl)cc1)C(=O)OCC	-5.02
COc1cc(C(=O)ON=C2C=C(C)C(=O)C(C)=C2)cc(OC)c1OC	-6.3
Cc1ccc2nsnc2c1N	-0.661
CC(CN1CCN(Cc2ccccc2)CC1)OC(=O)c1ccco1.Cl (stereo not shown)	-24.1
c1ccc(-c2csc3nnc(SCc4ccc5c(c4)OCO5)n23)cc1	-71.4
CCCCCOC(=O)c1[nH]c2c(c1C)C(=O)C(C(=O)OC)C(C)C2 (stereo not shown)	9.31
Cc1ccccc1Cn1nc(C)c(NC(=O)C2c3ccccc3Oc3ccccc32)c1C	1.65
CCN1C(=O)C(CC(=O)Nc2ccc(OC)cc2)N(CCc2ccccc2F)C1=S (stereo not shown)	-24.2
CC(=O)/C(=N/Nc1ccccc1[N+](=O)[O-])N1CCCc2ccccc21	3.36
Cc1nc2cc(C)c(C)cc2s1	15.7
C=CCOc1ccccc1CN(CCc1ccccc1)C(=O)c1cccc(S(C)(=O)=O)c1	-26.3
CC12CCC(=O)N1C(C(=O)OCC(=O)Nc1sccc1C#N)CS2 (stereo not shown)	12.7
Cc1[nH]c(=O)[nH]c(=O)c1S(=O)(=O)N1CCOCC1	3.26
Nc1nnc(N2CCCCCC2)s1	-28.4
O=C(Nc1ccccc1Br)c1ccc(OC(=S)N2CCOCC2)cc1	25.6

SMILES	hERG current change (%, negative = inhibition) at 10uM [%]
COC(=O)c1ccc(C(=O)OC)c(NC(=O)C(C)(C)C)c1	20.7
Cc1cc(C)c2c(-n3cccc3)c(C(=O)NNS(=O)(=O)c3ccc(Br)cc3)sc2n1	-24.3
NC(=O)c1c(NC(=O)CN2C(=O)CCC2=O)sc2c1CCCCC2	7.57
Cn1c(=O)n(C)c2cc([N+](=O)[O-])c(N3CCN(C(=O)c4cccc(Cl)c4)CC3)cc21	-64.2
CCOCCOC(=O)C1=C(C)N(C)C(=O)NC1c1cc(Cl)c(O)c(OC)c1 (stereo not shown)	8.63
COc1ccc(CNC(=O)c2ccc(N3CCC4(CC3)CC(c3ccc(Cl)cc3)=NO4)c(N)c2)cc1	6.61
CCC(C(=O)N1CCN(S(=O)(=O)c2sc(C(=O)O)c(C)c2C(=O)O)CC1)c1ccccc1 (stereo not shown)	20.2
CC1CCCC(C)N1C(=O)c1cc2ncc(CCCl)cn2n1 (stereo not shown)	10.7
Cc1ccc(O)c(NC(=O)C2CC(c3c(F)cccc3Cl)=NO2)c1 (stereo not shown)	3.65
CCN(CC)CCN(Cc1cc2cc3c(cc2[nH]c1=O)OCCO3)C(=S)NC	-23.2
Cc1cc[n+](CC(=O)c2cccc([N+](=O)[O-])c2)c2ccccc12.[Br-]	-58.8
O=C(c1ccccc1F)N1CCN(c2ccccn2)CC1	4.54
COC(=O)C1=C(C)NC(C)=C(C(=O)OC)C1C(=O)OCc1nnc(-c2ccccc2)o1	2.12
O=C(CCn1cnnn1)Nc1cccc(F)c1	21.3
Cc1ccc(OCC(=O)NCCO)cc1C	7.86
COc1cccc(OCC(=O)Nc2ccccc2NC(C)=O)c1	16.9
COc1ccc(NC(=O)c2c(C)nn(Cc3ccccc3Cl)c2Cl)cc1Cl	0.49
O=C(NC1(C(F)(F)F)C(=O)Nc2c1c(=O)[nH]c(=O)n2Cc1ccco1)C1CCCCC1 (stereo not shown)	20.7
COc1ccccc1N(CC(O)CN1C(C)CCCC1C)S(=O)(=O)c1ccccc1 (stereo not shown)	-18.1
CC1=C(C(=O)N2CCOCC2)C(c2c(F)cccc2F)NC(=O)N1 (stereo not shown)	26.6
O=C(CN1CCN(c2ccccn2)CC1)NC1CCCC1	-2.36
CCc1nnc(NS(=O)(=O)c2ccc(NC(=S)NC(=O)c3ccc(Br)cc3)cc2)s1	6.73

SMILES	hERG current change (%, negative = inhibition) at 10uM [%]
CCOC(=O)C1CCN(C(=O)c2cc3c(C)cc(C)cc3[nH]2)CC1	-15.2
COn1c2c(c3c4no[n+]([O-])c4ccc31)CCCC2	15.6
COc1cc(OC)cc(C(=O)OCn2nnc3ccccc3c2=O)c1	1.97
CN1CCN(C(=O)/C(=C/c2cccnc2)NC(=O)c2cccc(Br)c2)CC1	-2.87
CN(C)C(=O)N1CCC(C(=O)NCc2ccc3c(c2)OCO3)CC1	5.54
Cc1ccc(-n2c(=S)sc3c(=O)n(-c4ccccc4F)c(SCC(=O)O)nc32)cc1C	15.7
CSC1=NSC2=NC(=O)/C(=C\c3coc4ccccc4c3=O)C(=N)N12	-1.98
O=C(Nc1ccc(F)cc1)Nc1nnc(COc2ccccc2F)s1	-15.8
O=c1[nH]c2cc3c(cc2cc1CN(Cc1cccnc1)Cc1nnnn1Cc1ccco1)OCCO3	-4.69
Br.Cc1nc2ncccn2c1-c1csc(Nc2ccc(S(N)(=O)=O)cc2)n1	0.703
C=CCn1c(SCC(=O)Nc2c(C)n(C)n(-c3ccccc3)c2=O)nc2ccccc2c1=O	-32.9
CCOP(=S)(OCC)c1ccc(N(C)C)cc1	-4.68
COc1ccc(/C(C)=N/Nc2ccc(F)cc2F)c(O)c1	6.58
Cc1ccc(S(=O)(=O)NCC(=O)NCC(=O)N2CCN(c3ncccn3)CC2)cc1C	-13.9
CCCC[C@@H]1CN=C(N)N1CCc1cccc(F)c1	-9.82
CCCCn1nc2cc(C(=O)NCc3ccco3)ccc2c1OCC	-9.45
O=C(CSc1ncccn1)NCCc1ccccc1	-7.71
CCSc1c(C(=O)NC)ccc2c1C(=O)c1ccccc1C2=O	8.37
Cc1ccc(NC(=O)CCCn2nc(C)c3c(C)n(-c4ccccc4)nc3c2=O)c(Cl)c1	19.4
O=C(COC(=O)c1cc(=O)[nH]c2ccccc12)Nc1cccc(S(=O)(=O)N2CCOCC2)c1	-3.01
C[n+]1nc(Nc2ccccc2)sc1-c1ccc(O)cc1.[Cl-]	-2.05
COc1ccccc1NC(=O)c1cc(-c2ccc(C)o2)nc2ccccc12	-60.7

SMILES	hERG current change (%, negative = inhibition) at 10uM [%]
Cc1nn(C(=O)c2ccco2)c(C)c1CN1C(=O)c2ccccc2C1=O	-12.2
Nc1ccc(Br)cc1-c1nc2ccccc2[nH]c1=O	3.68
CN(C(=O)COC(=O)c1nc(Cl)ccc1Cl)C1CCS(=O)(=O)C1 (stereo not shown)	11.5
c1ccc(CC2CCN(C(c3cccs3)c3nnnn3C3CCCC3)CC2)cc1 (stereo not shown)	2.61
Cc1c(C(=O)Nc2ccccc2)cn2c(nc3ccccc32)c1C#N	6.24
COc1cccc(CNC(=O)C2CCN(S(=O)(=O)N3CCCCC3)CC2)c1	-18.1
COc1ccc(S(=O)(=O)N2CCN(C(C)C(=O)Nc3ccc(C(C)C)cc3)CC2)cc1 (stereo not shown)	-20.6
CC(=O)c1ccc(OCc2cc(C(=O)N3CCCCCCC3)no2)cc1	-19.8
COc1ccccc1NC(=O)c1ccc(S(=O)(=O)N(C)C)cc1	3.79
COc1ccc(C(=O)NC(=S)Nc2ccc(CN3CCOCC3)cc2)cc1OC	-7.16
CCOc1ccccc1NC(=O)c1cc(Cl)ccc1NC(=O)c1ccco1	-4.54
Cc1nn(CC(=O)Nc2c(F)cc(F)cc2Br)c(=O)c2cccn12	18.9
COC(=O)c1nn(-c2ccccc2)ccc1=O	19.1
CN1CCN(c2oc(-c3ccccc3)nc2S(=O)(=O)c2ccc(Br)cc2)CC1	-68.6
COc1cccc(C2SCC(=O)N2c2ccc(Cl)cc2)c1OC (stereo not shown)	-36.1
Cc1cccc(NC(=O)c2cc(-c3ccccn3)nc3ccccc23)c1C	12.5
CCc1ccc(C2c3[nH]c4ccccc4c3CCN2C(=O)c2ccc(=O)n(C)n2)cc1 (stereo not shown)	-0.653
Cc1ccc(NC2Nc3cc(C)nn3S2)c(C)c1 (stereo not shown)	0.514
COc1ccc(/C=C(/NC(=O)c2ccco2)C(=O)N2CCOCC2)cc1	2.13
COc1ccc2nc(Nc3nc4cc5c(cc4s3)OCO5)sc2c1	6.67
COCCNC(=O)C(=O)N/N=C(\C)CC(=O)Nc1ccc(Cl)cc1Cl	-2.81
COC(=O)/C(=C\Nc1ccc(Cl)cc1Cl)NC(=O)c1ccc(Cl)cc1Cl	-6.66
